Measured values as given in the GPR68 mutational scans of Howard et al. (2025).

B1: GPR68, Q15743 (parent)
chain: MGNITADNSSMSCTIDHTIHQTLAPVVYVTVLVVGFPANCLSLYFGYLQIKARNELGVYLCNLTVADLFYICSLPFWLQYVLQHDNWSHGDLSCQVCGILLYENIYISVGFLCCISVDRYLAVAHPFRFHQFRTLKAAVGVSVVIWAKELLTSIYFLMHEEVIEDENQHRVCFEHYPIQAWQRAINYYRFLVGFLFPICLLLASYQGILRAVRRSHGTQKSRKDQIQRLVLSTVVIFLACFLPYHVLLLVRSVWEASCDFAKGVFNAYHFSLLLTSFNCVADPVLYCFVSETTHRDLARLRGACLAFLTCSRTGRAREAYPLGAPEASGKSGAQGEEPELLTKLHPAFQTPNSPGSGGFPTGRLA

How the values were obtained:
[1] = variants of: B1; assay: cAMP reporter score (Enrich2 score, wild type = 0); higher = more signal; HEK293T, FACS bins
[2] = variants of: B1; assay: surface expression score (Enrich2 score, wild type = 0); higher = more signal; HEK293T, FACS bins

| Variant | cAMP reporter score ([1]; pH 5.5) | cAMP reporter score ([1]; pH 6) | cAMP reporter score ([1]; pH 6, modulator: ogerin) | cAMP reporter score ([1]; pH 6.5, modulator: ogerin) | surface expression score [2] |
| --- | --- | --- | --- | --- | --- |
| F241D | -0.668 | -1.36 | -1.59 | -0.706 | -2.17 |
| F241C | -0.711 | -1.16 | -1.43 | -0.611 | -2.81 |
| F241I | 0.778 | -0.034 | -0.134 | 0.203 | -1.62 |
| F241S | 0.427 |  | -0.259 |  | -1.11 |
| F241Y | -0.641 | -0.325 | -0.761 | -0.996 | -0.133 |
| F241T | -0.057 | -0.963 | -1.92 | -2.56 |  |
| F241L | -0.421 | -0.331 | -0.735 | -0.117 | -1.06 |
| F241K | -0.404 |  |  | -0.425 | -0.43 |
| F241V | -0.314 | 2.06 | -0.423 | -0.894 | -2.79 |
| F241G | -1.04 | -0.626 | -1.4 | -0.354 | -2.13 |
| F241E | -0.203 | -0.9 | 0.14 | -0.588 | -1.52 |
| F241A | -0.281 | -0.755 | -0.165 | -0.767 | -1.95 |
| F241H | -0.018 | 2.15 | 0.796 | 2.28 | -2.17 |
| F241Q | -0.256 | 0.273 | -0.165 |  | -1.04 |
| F241P | -0.73 | -0.599 |  | -0.775 | -1.6 |
| L242_P243del | -1.44 | -1.09 | -2.13 | -0.914 | -2.5 |
| I236_F237insGSG | -1.02 | -0.506 | -1 | -0.62 | -2.63 |
| L248_L249insGS | -0.885 | -1.48 |  | -0.822 | -2.92 |
| A239_F241del | -1.34 | -0.433 | -2.65 | -1.16 | -2.51 |
| P243_H245del | -0.977 | -0.666 | -1.24 | -1.08 | -2.18 |
| P243_Y244del | -1.6 | -1.23 | -1.14 | -1.11 | -3.15 |
| L248_L249insG | -1.29 | -0.631 | -1.06 | -0.547 | -2.63 |

| Variant | cAMP reporter score ([1]; pH 5.5) | cAMP reporter score ([1]; pH 6) | cAMP reporter score ([1]; pH 6, modulator: ogerin) | cAMP reporter score ([1]; pH 6.5, modulator: ogerin) | surface expression score [2] |
| --- | --- | --- | --- | --- | --- |
| L238_C240del | -0.763 | -2.43 |  | -1.52 | -1.82 |
| I236_F237insGS | 0.098 | -1.23 | -1.39 | -1 | -2.31 |
| H245_L247del | -1.28 | 0.317 | -1.28 | -1.03 | -1.96 |
| L242_Y244del | -0.878 | -1.52 | -1.76 | -1.88 | -2.92 |
| L247_L249del | -1.99 | -1.25 | -1.31 | -1.54 | -1.82 |
| L247A | -0.072 | 0.38 | 0.476 | 0.493 | -0.892 |
| L247N | 0.044 | -1.5 | -0.46 | -0.714 | -1.44 |
| L247D | -1.34 | -1.53 | -1.45 | -0.86 | -1.9 |
| L247W | -1.03 | -0.608 | -0.733 | -1.21 | -1.5 |
| L247Q | -0.938 | -0.272 | -0.245 | -1.65 | -2.76 |
| L247S | -0.298 | -1.3 |  | 4.65 | -0.829 |
| L247F | 1.1 | 1.14 | 1.49 | 0.786 | -0.299 |
| L247H | -0.491 | -0.79 | -0.584 | -0.403 | -2.38 |
| L247Y | -0.317 | -1.64 | -1 | -1.76 | -1.79 |
| L247R | -2.35 | -1.5 | -2.15 | -1.17 | -2.64 |
| L247K | -2.23 | -1.45 | -2.08 | -1.19 | -2.2 |
| L247I | 0.944 | 0.174 | 0.067 | -0.034 | 1.52 |
| L247V | -0.288 |  | 0.042 | -1.44 | -0.095 |
| L247T | 0.637 | 1.08 | 0.168 | 0.35 | 0.753 |
| L247C | -0.67 | 0.256 | -0.308 | -0.575 | -2.14 |
| L247P | -1.56 | -1.02 | -1.78 | -1.34 | -2.81 |
| L247G | 0.065 | -0.954 | -0.334 | -0.039 | -1.09 |

| Variant | cAMP reporter score ([1]; pH 5.5) | cAMP reporter score ([1]; pH 6) | cAMP reporter score ([1]; pH 6, modulator: ogerin) | cAMP reporter score ([1]; pH 6.5, modulator: ogerin) | surface expression score [2] |
| --- | --- | --- | --- | --- | --- |
| L247M | 0.345 |  | 1.19 | 2.05 | 0.828 |
| F237del | -1.59 | -0.967 | -1.37 | -0.763 | -1.98 |
| L247_L248insGS | -1.86 | -0.991 | -1.73 | -1.11 | -2.81 |
| A239_C240del | -1.53 |  | -2.02 | -1.84 |  |
| A239del | -1.37 | -1.35 | -1.48 | -0.478 | -0.01 |
| F241_P243del | -1.98 | -1.51 | -2.24 | -1.12 | -2.08 |
| V246_L247insG | -1.22 |  | -2.83 | -0.749 |  |
| A239_C240insGSG | -1.65 |  | -2.65 | -2 | -2.53 |
| Y244_H245insGS | -1.72 | -1.07 | -1.5 | -1.11 | -2.42 |
| I236Y | -1.95 | -1.98 |  | -0.515 | -1.71 |
| I236S | -0.404 | 3.68 | 0.14 | 1.94 | -1.09 |
| I236T | -0.483 | 0.705 | -0.553 | 0.399 | -1.27 |
| I236V | -0.315 | 0.235 | -0.353 | 0.228 | -0.383 |
| I236R | -1.3 | -2.68 |  | -1.41 | -3.12 |
| L249E | -1.06 |  |  | -1.91 |  |
| L249A | -0.005 | -1.18 | -0.714 | -1.02 | -1 |
| L249C | -0.556 | -1.45 | -0.578 | -1.15 | -1.71 |
| L249F | 0.912 | 0.242 | 1 | -0.406 | 1.45 |
| F241_L242insGS | -1.87 | -1.11 | -1.21 | -1.58 | -2.42 |
| F241_L242insG | -1.65 | -1.57 | -1.64 | -0.935 | -2.64 |

Scores with a large standard error are left out. The source holds two more conditions with little spread; they are left out. Read del as a deletion of the residues named and ins as an insertion between two positions. For some of these results: How much ogerin was present is not stated here.
